# Measurements published in the RNAGym collection of RNA variant scans (doi:10.7554/elife.90254).
# The source gives no read counts; variants with many changes may rest on few reads.
# B1: OR4K15 (parent)
# chain: GUUAACGGUCAUAGGCCAUGGAAACUAGGAGCACCAUUUCGCUGCCAGUGAAGAAAUGAACAAAGAAAAUCUGGGCCAGGCAGGCAUCAAAAGAAAUAGUCUUGCGCUCAACCAGAAAGUCUGUAAUCAUUUUAAGGGUA
# Variants of: B1
# Assay: self-cleavage, relative activity (ratio to wild type); higher = more cleavage; in vitro, sequencing; the parent is a self-cleaving ribozyme
row,Variant,self-cleavage
1,GUUAACGGUCAUAGGCCAUGGAAACUAGGAGCACCAUCUCGCUGCCAGUGAAGAAAUGAUCAAAGAAAAUCUGGGCCAGGCAGGCAUCAAAAGAAAUAGUCUUGCGCUCAACCAGAAAGUCUGUAAUCAUUCUAAGGGUA [U38C A60U U132C],1.09
2,GUUAACGGUCAUAGGCCAUGGAAACUAGGAGCACCAUUUCGCUGCCGGUGAGGAAAUGAACAAAGAAGAUCUGGGCCAGGCAGGCAUCAAAAGAAAUAGUCUUGCGCUCAACCAGAGAGUCUGUAAUCAUUUUAAGGGUA [A47G A52G A68G A117G],1.5
3,GUUACCGGUCAUAGGCCAUGGAAACUAGGAGCGCCAUUUCGCUGCCAGCGAAGAAAUGAACAAAGAAAAUCUGGGCCAGGCAGGCAUCAAAAGAAAUAGUCUUGCGCUCAACCAGAAAGUCUGUAAUCAUUUUAAGGGUA [A5C A33G U49C],1.29
4,GUUAACGGUCAUAGGCCAUGGAAGCUAGGAGCACCAUUUCGCUGCCAGUGAAGAAAUGAACAAAGAAAAUCUGGGCCAGGCAGGCAUCAAAAGAAAUAGUCUUGCGCUCAACCAGAAGGUCUGUAAUCACUUUAAGGGUA [A24G A118G U130C],0.24
5,GUUAACGGUCAUAGGCCAUGGAAACUAGGAGCACCAUUUCGCUGCCGGUGAAGAAAUGAACAAAGAAAAUCUGGGCCAGGCAGGCAUCAAAAGAAAUAGUCCUGCGCUCAACCAGAAAGUCCGUAAUCAUUUUAAGGGUA [A47G U102C U122C],1.73
6,GUUAACGGUCAUAGGUCAUGGAAACUAGGAGCACCAUUUCGCUGCCAGUGAAGAAAUGAACAAAGAAAAUCAGGGCCAGGCAGGCAUCAAAAGAAAUAGUCUUGAGCUCAACCAGAAAGUCUGUAAUCAUUUUAAGGGUA [C16U U72A C105A],0.05
7,GUUAACGGUCAUAGGCCAUGGGGACUAGGAGCACCAUUUCGCUGCCAGUGAAGAAAUGAACAAAGAAAAUCUGGGCCAGGCAGGCAUCAAAAGAAAUAGUCUUGCGCUCAACCAAAAAGUCAGUAAUCAUUUUAAGGGUA [A22G A23G G115A U122A],0.04
8,GUUAACGGUCAUAGGCCAUGGAAACUAGGAGCACCAUUUCGCUGCCAGUGAAGAAAUGAACAAAGAAAAUCUGGGCCAGGCAGGCAUCAUAAGAAAUAGUCUUGCGCUCAACCAGAAAGUCUGUAGUCAUUUUAAGGGCA [A90U A126G U139C],1.53
9,GUUAACGGUCAUAGGCCAUGGAAACUAGGAGCACCAUAUCGCUGCCAGUGAAGAAAUGAACAAAGGAAAUCUGGGCCAGGCAGGCAUCGAAAGAAAUAGUCUUGCGCUCAACCAGAAAGUCUGUAAUCAUUUUAAGGGUA [U38A A66G A89G],1.63
10,GUUAACGGUCAUAGGCCAUGGAAACUAGGAGCACCAUUUCGCCGCCAGUGAAGAAAUGAACAAAGAAAAUCUGGGCCAGGCAGGCAUCAAGAGAAGUAGUCUUGCGCUCAACCAGAAAGUCUGUAAUCAUUUUAAGGGUA [U43C A91G A96G],0.76
11,GUUAACGGUCAUAGGCCAUGGAAACUGGGAGCACCAUUUCGCUGCCAGUGAGGGAAUGAACGAAGAAAAUCUGGGCCAGGCAGGCAUCAAAAGAAAUAGUCUUGCGCUCAACCAGAAAGUCUGUAAUCAUUUUAAGGGUA [A27G A52G A54G A62G],0.9
12,GUUAACGGUCAUAGGCCAUGGAAACUAGGAGCACCAUUUCGCUGCCAGUGAAGAAACGCACAAAGAAAAUCUGGGCCAGGCAGGCAUCAAAAGUAAUAGUCUUGCGCUCAACCAGAAAGUCUGUAAUCAUUUUAAGGGUA [U57C A59C A94U],1.13
13,GUUAACGGUCAUAGGCCAUGGAAUCUAGGAGCACCAUCUCGCUGCCAGUGAAGAAAUGAACAAAGAAAAUCUGGGCCAGGCAGGCGUCAAAAGAAAUAGCCUUGCGCUCAACCAGAAAGUCUGUAAUCAUUUUAAGGGUA [A24U U38C A86G U100C],1.7
14,GUUAACGGUCAUAGGCCAUGGAAACUAGGAGCACCUUUUCGCUGCCAGUGAAGAAAUGAACAAAGAAAAUCUGGGCCAGGCAGGCAUCAAAAGAAAUAGUCUUGCGCUCAACCAGGAAGUCUGUAAUCAUUAUAAGGGUA [A36U A116G U132A],0.06
15,GUUAACGGUCAUAGGCCAUGGAAACUAGGAGCACCAUUUCGCUGCCGGUGAAGAAAUGAACUAAGAAAAUCUGGGCCAGGCAGGCAUCAAAAGAAACAGUCUUGCGCUCAACCAGAAAGUCUGUAAUCACUUUAAGGGUA [A47G A62U U97C U130C],0.62
16,GCUAACGGUCAUAGGCCAUGGAAACUAGGAGCACCAUUUCGCGGCCAGUGAAGAAAUGAACAAAGAAAAUCUGGGCCAGGCAGGCACCAAAAGAAAUAGUCUUGCGCUCAACCAGAAAGUCUGUAAUCAUUUUAAGGGUA [U2C U43G U87C],1.72
17,GUUAACGGUCAUAGGCCAUGGAAACUAGGAGCACCAUUUCGCUGCCAGUGAAGGAAUGAACAAAGAAAAUCUGGGCCAGGCAGGCAUCAAAAGAAAUGGUCUUGCGCUCAACCAGAAAGUCUGUAUUCAUUUUAAGGGUA [A54G A98G A126U],0.4
18,GAUAACGGUCAUAGGCCAUGGAAACUAGGAGCGCCAUUCCGCUGCCAGUGAAGAAAUGAACAAAGAAAAUCUGGGCCAGGCAGGCAUCAAAAGAAAUAGUCUUGCGCUCAACCAGAAAGUCUGUAAUCAUCUUAAGGGUA [U2A A33G U39C U131C],0.33
19,GUUAACGGUCAUAGGCCAUGGAAACUAGGAGCACCAUUUCGCUGCCAGUGAAGAAAUGAACAAAGAAGAUCUGGGCCAGGCAGGCAUCAAGAGAAAUAGUCUUGCGCUCAACCAGAAAGUCUGUAAUCAUUUUAGGGGUA [A68G A91G A135G],1.24
20,GUUAACGGUCAUAGGCCAUGGAAACUAGGAGCACCAUUUCGCUGCCAGCGAAGAAAUGAACAAAGAAAAUCUGGGCCAGGCAGGCAUCAAAAGAAAUAGUCUUGCGCUCAACCAGAGAGUCUGUAAUCAUUUUAAGGGCA [U49C A117G U139C],0.83
21,GUUAACGGUCAUAGGCCAUGGAAUCUAGGAGCACCAUUUCGCUGACAGUGAAGAAAUGAACAAAGAAAAUCUGGGCCAGGCAGGCAUCAAAAGAAAUAGCCUUGCGCUCAACCAGAAAGUCUGUAAUCAUUUUAAGGGUA [A24U C45A U100C],2.07

row,Variant,self-cleavage
1,GUUAACGGUCAUAGGCCAUGGAAACUAGGAGCACCAUUUCGCCGCCAGUGAAGAAAUGAACAAAGAAAAUCUGGGCCAGGCAGGCAUCGAAAGAAAUUGUCUUGCGCUCAACCAGAAAGUCUGUAAUCACUUUAAGGGUA [U43C A89G A98U U130C],1.37
2,GUUAACGGUCGUAGGCCAUGGAAACUAGGAGCACCAUUUCGCUGCCAGUGAAGAAAUGAACAAAGAGAAUCUGGGCCAGGCAGGCAUCAAGAGAAAUAGUCUUGCGCUCAACCAGGAAGUCUGUAAUCAUUUUAAGGGUA [A11G A67G A91G A116G],0.3
3,GUUAACGGUCAUAGACCAUGGAAACUAGGAGCACCAUUUCGCUGCCAGCGAAGAAAUGAACAAAGAAAAUCUGGGCCAGGCAGGCAUCAAAAGAAAUAGUCUUGCGCUCAACCAGAAAGUCUGUAAUCGUUUUAAGGGUA [G15A U49C A129G],0.28
4,GUUAACGGUCAUAGGCCAUGGAAACUAGGAGCACCAUUUCGCUGCCAGUGAAGAAAUGAACAAAGAAAGUCUGGGCCAGGCAGGCAUCAAAAGAGGUAGUCUUGCGCUCAGCCAGAAAGUCUGUAACCAUUUUAAGGGUA [A69G A95G A96G A111G U127C],0.01
5,GUUAACGGUCAUAGGCCAUGGAAACUAGGAGCACCAUUUCGCUGCCAGUGAAGAAAUGAACAAAGAAAUUCUGGGCCAGGCAGGCAUCAAAAGAAAUAGUCUUGCGCUCAACCAGAAAGUCUGUAAUCACUCUAAGGGUA [A69U U130C U132C],1.29
6,GUUAACGGUCAUAGGCCAUGGAAACUAGGAGCACCAUUUCGCCGCCAGUGAAGAAAUGAACAAAGAAAAUCUGGGCCAGGCAGGCAUCAAAAGAAAUAGUCUUGCGCUCAACCAGAAAGUCUGUAAUCAUCUUAGGGGUA [U43C U131C A135G],1.34
7,GUUAACGGUCAUAGGCCAUGGAAACUAGGAGCACCAUUUCGCCGCCAGUGGAGAAAUGAACAAAGAAAAUCUGGGCCAGGCAGGCAUCAAAAGAAAUAGUCUUGCGCUCAACCAGAAAGUCUGUAAUCAUUAUAAGGGUA [U43C A51G U132A],1.31
8,GUUAACGGUCAUAGGCCAUGGAAACUAGGGGCACCAUUUCGCUGCCAGUGAAGAAAUGAACAAAGAAAAUCUGGGCCAGGCAGGCGUCAAAAGAAGUAGUCUUGCGCUCAACCAGAAAGUCUGUAAUCAUUUUAAGGGUA [A30G A86G A96G],1.77
9,GUUAACGGUCAUAGGCCAUGGGAACUAGGAGCACCAUUUCGCUGCCAGUGAAGAAAUGAACGAAGAAAAUCUAGGCCAGGCAGGCAUCAAAAGAAAUAGUCUUGCGCUCAACCAGAAAGUCUGUAAUCAUUUUAAGGGUA [A22G A62G G73A],0.32
10,GUUAACGGUCAUAGGCCUUGGAAACUAGGAGCACCAUUUCGCUGCCAGUGAAGAAAUGAACAAAGGAAAUCUGGGCCAGGCAGGCAUCAAAAGAAAUAGUCUUGCGCUCAACCAGAAAGUCUGUAAUCACUUUAAGGGUA [A18U A66G U130C],0.78
11,GUUAACGGUCAUAGGCCAUGGAAUCUAGGAGCACCAUUUCGCUGCCAGUGAAGAAAUGAACAAAGAAAAACUGGGCCAGGCAGGCAUCAAAAGAAAUAGUCUUGCGCUCAACCAGAUAGUCUGUAAUCAUUUUAAGGGUA [A24U U70A A117U],0.84
12,GUUAACGGUCAUAGGCCAUGGAGACUAGGAGCACCGUUUCGCUGCCAGUGAAGAAAUGGACAAAGAAAAUCUGGGCCAGGCAGGCAUCAAAAGAAAUAGUCUUCCGCUCAACCAGAAAGUCUGUAAUCAUUUUAAGGGUA [A23G A36G A59G G104C],0.07
13,GCUAACGGUCAUAGGCCAUGGAAACUAGGAGCACCAUUUCGCUGCCAGUGAAGAAAUGAACAAAGAAAAUCUGGGCCAGGCAGGCAUCAAAAGAAAUAGUCUCGCGCUCAACCAGGAAGUCUGUAAUCAUUUUAAGGGUA [U2C U103C A116G],0.14
14,GUUAACGGUCAUAGGCCAUGGAAACUAGGAGCACCAUUUCGCUGCCAGUGAAGAAAUGAACAAAGAAAAUCUGGGCCAGGCAGGCAUCAAAAGAAAUAGUCUCGCGCCCAACCAGAAAGUCUGAAAUCAUUUUAAGGGUA [U103C U108C U124A],0
15,GUUAACUGUCAUAGGCCACGGAAACUAGGAGCACCAUUUCGCUGCCAGCGAAGAAAUGAACAAAGAAAAUCUGGGCCAGGCAGGCAUCAAAAGAAAUAGUCUUGCGCUCAACCAGAAAGUCUGUAAUCAUUUUAAGGGUA [G7U U19C U49C],1.05
16,GUUAACUGUCAUAGGCCAUGGAAACUAGGAGCACCAUUUCGCUGCCAGUGAAGAAAUGAACAAAGAGAAUCUGGGCCAGGCAGGCAUCAAAAGAAAUAGUCUUGCGCUCAACCAGAAUGUCUGUAAUCAUUUUAAGGGUA [G7U A67G A118U],0.35
17,GUUAACGGUCAUAGGCCAUGGAAACUAGGAGCACCAAUUCGCUGCCAGUGAAGAAAUGAACAAAGAAAAUCUGGGCCAGGCAGGCAUCAAAAGGAAUAGUCUUGCGCUCAACCAGAAAGUCUGUAAUCAUUUUGAGGGUA [U37A A94G A134G],2.08
18,GUUAACGGUCAUAGGCCAUGGAAACUAGGAGCACCAUUUCGCUGCCGGUGUAGAAAUGAACGAAGAAGUUCUGGGCCAGGCGGGCAUCAAAAGAAAUAGUCUUGCGCUCAACCAGAAAGUCCGUAAUCAUUUUAAGGGUA [A47G A51U A62G A68G A69U A82G U122C],0.19
19,GUUAACGGUCAUAGGCCAUGGAAACUAGGAGCACCAUUUCGCUGCCAGUGAAGAAAUGAACAAAGAAAAUCUGGGCCAGACAGGCAUCAAAAGAGAUAGUCUUGCGCUCAGCCAGAAAGACUGUAAUCAUUUUAAGGGUA [G80A A95G A111G U120A],0.01
20,GUUAACGGUCAUAGGCCAUGGAAACUAGGAGCACCAUUUCGCUGCCAGUGAGGAAAUGAACAAAGAAAAUCUGGGCCAGGCAGGCAUCAAAAGAAAUAGUCUUGCGCUCAACCAGAAAGUCUGUAAUCAUUUUAAGUGUG [A52G G137U A140G],1.06
